# Experimental data published in the supplement of paper PMC3334620.
# Whole data set: some 33,000 sequences, median “E-score (-0.5 to 0.5)” near -0.054, cut for the highest 2% near 0.39. The list shows a part of the results.
# Target: Ylr278c (UniProt Q05854)
# Experiment: PBM E-score (8-mer binding enrichment) (E-score (-0.5 to 0.5)); higher = stronger / more preferred TF binding; most listed sequences are background and not binding sites
# Settings: protein concentration: 200 nM; construct: GST-DNA-binding domain
# Procedure, shortened: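 Yeast transcription factors, full-length or as DNA-binding domains, were expressed with a GST tag using PURExpress in vitro transcription/translation. At about 100-200 nM they were applied to universal all-10-mer Agilent arrays, double-stranded by primer extension on fresh or once-stripped slides. Fluorescent anti-GST detected bound protein, and masliner normalised the scans. E-scores for ungapped eight-base words, pooled with reverse complements, came from the Universal PBM Analysis Suite.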
row,Sequence,PBM E-score
1,ACGACATG,-0.16
2,TGGTACCA,-0.008
3,CAGCAATC,-0.108
4,AAAACCCG,0.369
5,CTATTCAC,0.0556
6,AAGAGTGT,-0.126
7,CAAGAAGA,-0.121
8,GCATTACA,-0.0626
9,CAAAAACC,0.194
10,GCTGGGGA,-0.114
11,CTCGCACA,0.0207
12,CTGACAGC,-0.0804
13,CCAAAGTC,-0.0999
14,ATGTGTCC,0.0567
15,GGCTGGAA,-0.0866
16,CGTTTTGC,-0.0286
17,AACTAAGT,-0.0963
18,CCCTGCAG,0.0146
19,CCTTCACG,0.00613
20,GGCCAAGA,-0.0893
21,CGTGAGAG,-0.158
22,GGGGCCGA,0.0787
23,CTGTGGCA,-0.311
24,TAGATCCA,-0.128
25,AAGGTACT,-0.0144

row,Sequence,PBM E-score
1,ACTATCAC,-0.173
2,CGTGATTC,-6e-05
3,ACGGGGGC,-0.00097
4,TCGCCACA,0.0158
5,CATAGTAA,-0.204
6,CCTTTGAA,-0.189
7,ACTCCCCT,0.174
8,CGCCACAA,0.00563
9,CAAAGTGC,-0.0832
10,GATCCTAC,0.0326
11,ATCTCTGG,-0.239
12,CGCTGGTC,-0.118
13,AGGTGTAA,-0.0299
14,TGGTGACA,-0.138
15,CCAGACAG,-0.173
16,ATCGCGAT,0.0638
17,ATCTGGCG,-0.0525
18,ACTCGTAA,-0.00301
19,CCTGTTAG,-0.0475
20,GAGGCGGA,0.373
21,CCAACAGC,-0.112
22,AAGTACCC,0.00262
23,CATATATC,-0.0515
24,GACCTTAC,0.0881
25,CGTGAATA,-0.00311

row,Sequence,PBM E-score
1,CCCTATAC,-0.0456
2,CCCGGTGC,0.335
3,ATTGGCGG,0.133
4,ACCCCAAG,0.0432
5,ATCGGACA,0.419
6,CGGAAGCA,0.321
7,CGGATTAG,0.299
8,GCGGCTGA,-0.177
9,TCCGCAAA,0.367
10,AACGTCCA,-0.111
11,AAGATCTA,-0.169
12,CGGCGGTA,0.361
13,GGGAAGGA,-0.0567
14,GTTATAGA,-0.267
15,AAAAAATG,0.0882
16,CCAACGGC,0.0697
17,ATCTAACA,-0.275
18,ATGGAGCG,-0.0671
19,TAGTTCAA,-0.019
20,CCTATACG,-0.298
21,AGTGGTCG,0.0431
22,GGAGTCCC,0.256
23,AACTCACG,-0.205
24,TAGTGAGA,-0.00892
25,GGCAGGAA,-0.119

row,Sequence,PBM E-score
1,GTACGGTA,0.0379
2,ACCAAGAC,-0.0132
3,ATCCGAAA,0.368
4,TAGCCTAA,-0.162
5,GTAGGGAC,-0.123
6,ACTGGTGC,-0.0757
7,GAGGCGGC,0.177
8,CATATGAG,-0.0107
9,CGCTGAAA,0.0975
10,AGCTATAT,-7e-05
11,TCAATTCA,-0.0799
12,GCCTCCTA,-0.0795
13,GGGCGAGA,-0.0207
14,CCCTTCCC,-0.00378
15,CTCTTCGA,-0.0617
16,CCGCGAGG,0.338
17,AGTCTCCC,0.102
18,AGCGGACG,0.252
19,GCTGGACA,-0.211
20,AAAAAACC,0.00451
21,TGGGACCA,-0.194
22,AGAGCCAA,-0.238
23,CTAAGACC,0.0428
24,CTCCATAA,-0.269
25,AAGTGCCG,0.205

row,Sequence,PBM E-score
1,CAGGAAGC,-0.0754
2,GCGTGCAA,-0.121
3,AGTGCCAC,-0.239
4,AAAACCGG,0.375
5,AAGCTGGG,-0.143
6,AGATGTCC,0.16
7,GAGTAAAA,0.0413
8,ACTAAATG,-0.0707
9,GCCCACGA,-0.146
10,AATACCCG,0.212
11,CTGGCAAA,-0.0515
12,ATCTTCGA,-0.0649
13,GTGCGATA,-0.046
14,ACTATGTA,-0.129
15,ATGACTTG,-0.0562
16,ACTCCAAT,-0.0126
17,GCGTGAAA,-0.0229
18,TCCTCCAA,-0.245
19,CTGAACTC,-0.141
20,GAGTGTGC,0.0412
21,ATGACTGC,-0.0571
22,GAGAATGC,0.0708
23,CCCCAAGC,0.121
24,CGGCCGAG,0.279
25,ACAACGCC,0.107

row,Sequence,PBM E-score
1,TCAATAGA,-0.253
2,CCTAGGGA,0.0579
3,GAGCGCCC,0.00794
4,CACAATTC,-0.00445
5,TACATAAA,-0.232
6,AGCGAGTC,-0.122
7,AGTGCAAG,-0.137
8,ATGGCCTC,0.077
9,AACCGAGC,0.171
10,AACGCCGC,0.339
11,CCCTATAG,-0.264
12,GTAGTAAC,0.0594
13,CGTTTACC,0.0804
14,GATCCAAC,0.0139
15,CTGAGCAG,-0.238
16,CTTACAAC,-0.168
17,AACTTCCT,0.00298
18,CAGTAGAA,-0.217
19,CGGGTGAC,0.0902
20,GCGACGCC,0.21
21,AGAATATG,-0.0292
22,GCCGTCAC,0.244
23,CTATTCTA,-0.133
24,CACAAGGA,-0.349
25,ACTGGGGG,-0.168

row,Sequence,PBM E-score
1,AATTGCGG,0.225
2,GTTCGAGA,-0.122
3,ATAAAGCC,0.107
4,CTTCATCA,-0.0255
5,CGATAGGC,0.0223
6,GCGTGCGA,-0.0371
7,GGAGGAAA,0.261
8,GTGCTGCA,-0.00869
9,CCCGGAGA,0.476
10,CGTGAAAA,-0.0561
11,GCTGACGA,-0.281
12,ATCAGGGC,-0.201
13,CAAGAATG,0.092
14,GATAACAC,0.0766
15,AGGTATCC,-0.0286
16,ACATACAC,-0.0879
17,AGGGACTA,-0.223
18,ATGGTGAC,-0.31
19,CAGAACTC,-0.0767
20,AATGATGG,0.0306
21,AATTCCCG,0.345
22,AAAACTGG,-0.0461
23,ACCTCGCC,0.0272
24,ACAGCACT,-0.0845
25,TATACATA,-0.214

row,Sequence,PBM E-score
1,CGAAGCAC,0.0155
2,CGGGACAC,0.0985
3,CAATGTTA,-0.126
4,AACTAATT,-0.00161
5,CGTCGTTA,0.032
6,GCTTTCTA,-0.0726
7,CACACAAG,-0.203
8,GGCGACCA,-0.0957
9,GGCTGTTA,-0.0693
10,GTAGAACA,-0.202
11,ACAGCATG,-0.0904
12,AATAGCCT,-0.223
13,GCTTTAGA,-0.179
14,AGGATATA,-0.11
15,CCAGTGTA,-0.0362
16,CAAGCAAA,-0.103
17,CCATCTGA,-0.155
18,TTCAAAAA,-0.0673
19,TAAGCTTA,-0.262
20,CACACATC,-0.0749
21,GTCGGACA,0.386
22,TGGAGACA,-0.227
23,TCAGTTAA,0.044
24,ACTGCATG,-0.196
25,ACGACTTC,-0.0449

row,Sequence,PBM E-score
1,GGCGTACA,-0.16
2,ATATTCAC,-0.0206
3,CCACGTCC,0.0181
4,CACTTATC,-0.155
5,CTGGGCAA,-0.0529
6,CAATTTAA,-0.00752
7,ACTGGTAG,-0.116
8,CAAGGGGC,0.0506
9,AAGACGCG,0.0674
10,ACATCCGA,0.356
11,TAATGACA,-0.0415
12,ACACAATG,-0.143
13,CGGTTCTC,0.102
14,CCGCTACG,0.192
15,GAGGCACC,-0.12
16,ACCTGTTG,-0.16
17,CGTGTTGC,0.0387
18,CGATCGCG,0.244
19,AGTAACTG,-0.167
